# Results taken from the BET-seq Pho4 binding data (Le et al. 2018).
# Some of the results follow. The energies were worked out here from pooled read counts, against the library average; single values are noisy.
# Biological target: T1, Pho4 (S. cerevisiae) (UniProt P07270)
# T1 sequence: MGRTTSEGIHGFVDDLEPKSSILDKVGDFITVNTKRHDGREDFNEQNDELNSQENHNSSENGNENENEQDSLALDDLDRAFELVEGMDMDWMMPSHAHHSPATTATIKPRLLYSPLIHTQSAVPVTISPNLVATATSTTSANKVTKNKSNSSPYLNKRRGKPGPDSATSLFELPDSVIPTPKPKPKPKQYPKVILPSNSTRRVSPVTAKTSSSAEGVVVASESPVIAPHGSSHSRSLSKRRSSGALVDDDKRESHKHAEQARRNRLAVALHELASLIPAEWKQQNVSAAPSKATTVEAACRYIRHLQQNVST
# Experiment: relative binding free energy (BET-seq); higher = weaker binding
# Conditions: reference: library average
row,Sequence,relative binding free energy
1,TGTATCACGTGTGAAA,0.13 kcal/mol
2,TTAGTCACGTGCGGGC,0 kcal/mol
3,AATGTCACGTGTATGA,0.19 kcal/mol
4,TGGATCACGTGATATG,0.25 kcal/mol
5,TGTTCCACGTGAAGTA,0.3 kcal/mol
6,TAGAGCACGTGTTTAG,-0.15 kcal/mol
7,ACATTCACGTGGTGAT,0.19 kcal/mol
8,GTTTGCACGTGCATTG,0.04 kcal/mol
9,TTGGCCACGTGAGAGT,0.04 kcal/mol
10,TGATTCACGTGTACAT,0.37 kcal/mol
11,TATGGCACGTGGGGGG,-0.19 kcal/mol
12,CGGGGCACGTGTAGCG,-0.04 kcal/mol
13,TACGTCACGTGTGAGT,0.18 kcal/mol
14,AGTGACACGTGGGGGT,-0.14 kcal/mol
15,TGTATCACGTGGGACA,0.02 kcal/mol
16,GTCGTCACGTGCGGTT,0.09 kcal/mol
17,TGGGACACGTGTATGG,0.04 kcal/mol
18,TTTTCCACGTGCTTTG,0.05 kcal/mol
19,TGGGGCACGTGAGATT,0.22 kcal/mol
20,AGGTACACGTGAGCGG,0.2 kcal/mol
21,GAGAGCACGTGAAGGG,0.26 kcal/mol
22,GTGGGCACGTGCTTTC,-0.07 kcal/mol
23,TGCGACACGTGAGGGA,0.21 kcal/mol
24,GGGAACACGTGGTTGC,0.05 kcal/mol
25,TTAATCACGTGTCTAG,0.19 kcal/mol
26,TGGATCACGTGGGGCT,-0.03 kcal/mol

row,Sequence,relative binding free energy
1,TATAGCACGTGTGGAG,-0.03 kcal/mol
2,TGATACACGTGGTACT,0.04 kcal/mol
3,TGGGTCACGTGGTGGG,0.06 kcal/mol
4,TTAGGCACGTGCGTGC,-0.12 kcal/mol
5,TTTTGCACGTGTCATT,0.21 kcal/mol
6,GGGTCCACGTGTGTTT,0.12 kcal/mol
7,TTGTTCACGTGCGCGA,0.09 kcal/mol
8,AGGGGCACGTGGGGGG,-0.15 kcal/mol
9,GGGCTCACGTGGTCTG,0.26 kcal/mol
10,TATATCACGTGAATGA,0.42 kcal/mol
11,GCTTGCACGTGAGCGT,0.26 kcal/mol
12,ATTTACACGTGTAGTT,0.11 kcal/mol
13,GTCTTCACGTGAATTT,0.48 kcal/mol
14,CGGGGCACGTGCCGTG,-0.23 kcal/mol
15,GAGGTCACGTGCGATG,0.13 kcal/mol
16,TACAACACGTGAGGGG,0.36 kcal/mol
17,AAAGTCACGTGGTAGG,0.03 kcal/mol
18,CTGGCCACGTGGGGCG,-0.32 kcal/mol
19,TGACACACGTGTTTGG,-0.07 kcal/mol
20,GGTAGCACGTGTCTGA,0 kcal/mol
21,AGTCACACGTGGGGTT,-0.06 kcal/mol
22,CGTGTCACGTGCTGGG,0.13 kcal/mol
23,AGGGTCACGTGTGACG,0.04 kcal/mol
24,CTGGTCACGTGTGAGC,0.16 kcal/mol
25,TGGCACACGTGAGTGA,0.33 kcal/mol
26,ATTGACACGTGTTGGC,0.02 kcal/mol

row,Sequence,relative binding free energy
1,ATAAGCACGTGAGGGC,0.21 kcal/mol
2,GCATGCACGTGGGTCT,-0.05 kcal/mol
3,GGGGACACGTGGAACG,0.13 kcal/mol
4,CAGTTCACGTGGCTGT,0.21 kcal/mol
5,GTTACCACGTGTTTGT,-0.07 kcal/mol
6,GGAATCACGTGTTATT,0.26 kcal/mol
7,AGGATCACGTGATGTG,0.2 kcal/mol
8,CCGGGCACGTGTTGTT,-0.17 kcal/mol
9,TGGGTCACGTGAGTTA,0.27 kcal/mol
10,CTGCGCACGTGGATGG,-0.15 kcal/mol
11,TTCAACACGTGAGGTG,0.23 kcal/mol
12,TCGGGCACGTGCATAG,-0.05 kcal/mol
13,AGTGCCACGTGTGGAT,-0.06 kcal/mol
14,TTAGACACGTGTTATG,0.02 kcal/mol
15,TACTGCACGTGGGGGT,-0.23 kcal/mol
16,TTCATCACGTGTCTGT,0.04 kcal/mol
17,AATAGCACGTGGAGGA,-0.14 kcal/mol
18,GAGTACACGTGGGGGA,0.04 kcal/mol
19,CTAGTCACGTGGGCTG,-0.07 kcal/mol
20,GTCTGCACGTGTTTGA,0 kcal/mol
21,TTGAGCACGTGAAGGG,0.21 kcal/mol
22,GTGATCACGTGGTTTC,0.04 kcal/mol
23,GTGCTCACGTGGTGGG,0.22 kcal/mol
24,GGTGACACGTGAGTCT,0.24 kcal/mol
25,TAGTTCACGTGTATCG,0.35 kcal/mol
26,TTTTCCACGTGTTCTG,0.17 kcal/mol

row,Sequence,relative binding free energy
1,TGCTACACGTGTTTTG,-0.01 kcal/mol
2,TGGGACACGTGCGGGA,0.03 kcal/mol
3,AGGGCCACGTGTTTGA,0.01 kcal/mol
4,TATGCCACGTGGTTTG,-0.14 kcal/mol
5,GACTGCACGTGTTTTG,0.04 kcal/mol
6,TAGTTCACGTGGCGGC,0.24 kcal/mol
7,TTGGTCACGTGGTATA,0.1 kcal/mol
8,ATTTACACGTGTCAAG,0.18 kcal/mol
9,TGGTCCACGTGCAGGG,-0.14 kcal/mol
10,AAAGGCACGTGCGTGT,-0.18 kcal/mol
11,GCGGGCACGTGAGGTT,0.22 kcal/mol
12,TTATCCACGTGAGGTT,0.33 kcal/mol
13,AAGGGCACGTGTGACG,0 kcal/mol
14,TGGGTCACGTGTACAG,-0.01 kcal/mol
15,ATTTTCACGTGGTCTG,0.12 kcal/mol
16,TCTTGCACGTGTGTAA,0 kcal/mol
17,CATGACACGTGAGGTT,0.26 kcal/mol
18,AAGGTCACGTGTATGC,0.26 kcal/mol
19,CTGAACACGTGTTGGG,0.06 kcal/mol
20,GGGGGCACGTGTTGCA,-0.01 kcal/mol
21,TTAGGCACGTGTGCAA,-0.15 kcal/mol
22,TGTGGCACGTGTGCCT,-0.08 kcal/mol
23,CAGGGCACGTGGGGCG,-0.23 kcal/mol
24,CCTTGCACGTGAGGGG,0.19 kcal/mol
25,GTTGGCACGTGGCGTT,-0.16 kcal/mol
26,TCGGTCACGTGATCGG,0.28 kcal/mol

row,Sequence,relative binding free energy
1,TTTGGCACGTGAGATA,0.16 kcal/mol
2,GGACGCACGTGTGGTG,-0.12 kcal/mol
3,TCAGGCACGTGATGGT,0.05 kcal/mol
4,GAGGCCACGTGTGGGT,0.09 kcal/mol
5,GGGTTCACGTGTGTAC,0.42 kcal/mol
6,TTGGTCACGTGTGACA,0.19 kcal/mol
7,ATGGACACGTGGGTTC,-0.04 kcal/mol
8,TGGTCCACGTGATTTA,0.26 kcal/mol
9,GGGCGCACGTGTCGGT,0.02 kcal/mol
10,TGTGACACGTGTATAT,-0.08 kcal/mol
11,GTGATCACGTGTAGCG,0.27 kcal/mol
12,AAGATCACGTGGGTGG,-0.05 kcal/mol
13,AGGGTCACGTGTCTCG,0.21 kcal/mol
14,CTGTTCACGTGTTAGA,0.26 kcal/mol
15,GATTTCACGTGTGCTA,0.39 kcal/mol
16,TTTAGCACGTGTTTTC,-0.05 kcal/mol
17,TTGTCCACGTGGGTAA,0.01 kcal/mol
18,AGGTGCACGTGGACGT,-0.07 kcal/mol
19,TTGCTCACGTGGGGTA,-0.02 kcal/mol
20,TGAGACACGTGTTAGT,-0.04 kcal/mol
21,CATGACACGTGTGGCT,0.17 kcal/mol
22,GGTAACACGTGGTGTC,-0.03 kcal/mol
23,CGTGTCACGTGTGTAG,0.02 kcal/mol
24,TATATCACGTGTTTGG,0.08 kcal/mol
25,GTGGGCACGTGATATC,0.08 kcal/mol
26,ATATACACGTGGGTAA,-0.15 kcal/mol

row,Sequence,relative binding free energy
1,GTTTGCACGTGTCGTG,0.03 kcal/mol
2,TGAGGCACGTGTTGTG,-0.08 kcal/mol
3,ATGCGCACGTGAGTGT,-0.01 kcal/mol
4,AAGTTCACGTGTGTTT,0.25 kcal/mol
5,GCGGGCACGTGTTAGT,-0.19 kcal/mol
6,ATAGACACGTGAATGG,0.38 kcal/mol
7,AAAGTCACGTGAGTGT,0.26 kcal/mol
8,ATGGTCACGTGTAGAT,0.23 kcal/mol
9,GTAAACACGTGGTAAG,0.13 kcal/mol
10,ATTCCCACGTGGTGGT,-0.19 kcal/mol
11,GTGGACACGTGGAGAT,0.13 kcal/mol
12,TTCGTCACGTGATAGG,0.15 kcal/mol
13,AGGCTCACGTGTAGTG,0.19 kcal/mol
14,ACGGGCACGTGGGAGC,-0.19 kcal/mol
15,GAGTTCACGTGATAAG,0.42 kcal/mol
16,TGTTGCACGTGTATGC,0.07 kcal/mol
17,GAGGCCACGTGGGAAG,0.04 kcal/mol
18,TATCGCACGTGGGGAG,-0.24 kcal/mol
19,GGTGCCACGTGAAGTT,0.19 kcal/mol
20,GGTGCCACGTGTCAGG,0.01 kcal/mol
21,TGAGGCACGTGGTTTC,-0.11 kcal/mol
22,ATTGACACGTGTCTGT,0.01 kcal/mol
23,AGTGTCACGTGCTTCG,0.06 kcal/mol
24,CTCTGCACGTGAGGTT,0.13 kcal/mol
25,TAGGTCACGTGATGTT,0.15 kcal/mol
26,CGTGCCACGTGAGGAG,0.21 kcal/mol

row,Sequence,relative binding free energy
1,ATTCACACGTGGGGGA,-0.14 kcal/mol
2,TTTTACACGTGCTTTT,0.02 kcal/mol
3,TTATGCACGTGTACTA,-0.05 kcal/mol
4,AATTGCACGTGTTGTA,-0.03 kcal/mol
5,TATGCCACGTGTGGTG,-0.08 kcal/mol
6,CTATGCACGTGCGTGT,-0.04 kcal/mol
7,CATTTCACGTGATGGC,0.38 kcal/mol
8,TTTCGCACGTGGAAGT,0.15 kcal/mol
9,TGTGCCACGTGTTATA,-0.2 kcal/mol
10,TTGGACACGTGATGAC,0.35 kcal/mol
11,TTGCTCACGTGGGTGG,0.15 kcal/mol
12,CTTGTCACGTGGTAGA,0.03 kcal/mol
13,CAAAGCACGTGTGTTT,0.05 kcal/mol
14,CTTGACACGTGAGGTT,0.25 kcal/mol
15,TAGGCCACGTGATTGT,0.08 kcal/mol
16,GAAGGCACGTGTCAGT,-0.08 kcal/mol
17,AGTCACACGTGTTAGG,0.09 kcal/mol
18,CGTGTCACGTGTTGAA,0 kcal/mol
19,TGGATCACGTGTAAGG,0.1 kcal/mol
20,TGTGGCACGTGACTTG,-0.08 kcal/mol
21,GTGAACACGTGTCGGC,0.27 kcal/mol
22,TTTTACACGTGTGTAC,0.05 kcal/mol
23,ATTATCACGTGGCGGA,0.09 kcal/mol
24,TGTGTCACGTGATCCG,0.14 kcal/mol
25,GCATTCACGTGGTGAG,0.21 kcal/mol
26,TGTCTCACGTGAATAA,0.6 kcal/mol

row,Sequence,relative binding free energy
1,AGTGGCACGTGCCGTG,-0.25 kcal/mol
2,GTTTGCACGTGCGTCA,-0.04 kcal/mol
3,ATTTTCACGTGGGTCC,0.28 kcal/mol
4,GTGGGCACGTGTGAGT,-0.02 kcal/mol
5,AACGTCACGTGTTGTG,0 kcal/mol
6,TATGTCACGTGAGATA,0.28 kcal/mol
7,CGTGACACGTGGAAGG,-0.11 kcal/mol
8,TGGACCACGTGTTGCG,-0.01 kcal/mol
9,GTTCTCACGTGTATTA,0.24 kcal/mol
10,AGGGTCACGTGATGCT,0.24 kcal/mol
11,GTCTTCACGTGCGTTT,0.4 kcal/mol
12,GGGGACACGTGTTATA,0.01 kcal/mol
13,TGGAGCACGTGACTGG,0.01 kcal/mol
14,GGCTACACGTGAGGGG,0.29 kcal/mol
15,AGTATCACGTGGTTGC,0.07 kcal/mol
16,TTAGTCACGTGTATAG,0.08 kcal/mol
17,AAAATCACGTGGGGCG,0.22 kcal/mol
18,TTCGGCACGTGTCGTT,0.08 kcal/mol
19,TGGGGCACGTGCTATG,-0.18 kcal/mol
20,GTAAGCACGTGTTTGT,0.02 kcal/mol
21,GTGAACACGTGTGCGG,-0.05 kcal/mol
22,CTTTGCACGTGCTGTT,-0.21 kcal/mol
23,TGGTTCACGTGATGTA,0.5 kcal/mol
24,AGTTGCACGTGGAGTG,-0.07 kcal/mol
25,GGTGGCACGTGGCTTG,-0.12 kcal/mol
26,TTGGTCACGTGTTCGT,0.08 kcal/mol

row,Sequence,relative binding free energy
1,ATGTACACGTGGTAAG,0.08 kcal/mol
2,GTTGGCACGTGAATTA,0.17 kcal/mol
3,AAAAGCACGTGGTTTG,-0.18 kcal/mol
4,CGCTTCACGTGGGCGG,0.13 kcal/mol
5,ATCTTCACGTGAAGGA,0.46 kcal/mol
6,TGTTTCACGTGAAGAA,0.37 kcal/mol
7,GATCGCACGTGCGTGT,-0.01 kcal/mol
8,ACAGTCACGTGCGTGG,0.04 kcal/mol
9,CGGCTCACGTGTTGGT,0.27 kcal/mol
10,ACGGGCACGTGGGTAA,-0.3 kcal/mol
11,ATTAGCACGTGTTGAT,-0.09 kcal/mol
12,GTGTGCACGTGTCGTT,-0.05 kcal/mol
13,AAGGGCACGTGTCAAG,-0.16 kcal/mol
14,TGTGACACGTGAATGA,0.25 kcal/mol
15,GATCTCACGTGTTGGT,0.36 kcal/mol
16,ACGAGCACGTGGGATG,-0.11 kcal/mol
17,GTCGTCACGTGGTATG,0.03 kcal/mol
18,AAAGACACGTGCTGGT,0.06 kcal/mol
19,ATATTCACGTGTATTT,0.24 kcal/mol
20,GGGTCCACGTGGGAGC,-0.05 kcal/mol
21,ATTAGCACGTGAGATA,0.18 kcal/mol
22,AAGTGCACGTGTTATC,0.03 kcal/mol
